Experimental data from the supplement of paper PMC3334620.
Whole data set: some 33,000 sequences, median “E-score (-0.5 to 0.5)” near -0.021, cut for the highest 2% near 0.32. The list shows a part of the results.

The sequences below were run against T1, Zap1 (UniProt P47043) (assay: PBM E-score (8-mer binding enrichment) (E-score (-0.5 to 0.5)); higher = stronger / more preferred TF binding; most listed sequences are background and not binding sites). Conditions: protein concentration: 200 nM; construct: GST-full length.
T1 sequence: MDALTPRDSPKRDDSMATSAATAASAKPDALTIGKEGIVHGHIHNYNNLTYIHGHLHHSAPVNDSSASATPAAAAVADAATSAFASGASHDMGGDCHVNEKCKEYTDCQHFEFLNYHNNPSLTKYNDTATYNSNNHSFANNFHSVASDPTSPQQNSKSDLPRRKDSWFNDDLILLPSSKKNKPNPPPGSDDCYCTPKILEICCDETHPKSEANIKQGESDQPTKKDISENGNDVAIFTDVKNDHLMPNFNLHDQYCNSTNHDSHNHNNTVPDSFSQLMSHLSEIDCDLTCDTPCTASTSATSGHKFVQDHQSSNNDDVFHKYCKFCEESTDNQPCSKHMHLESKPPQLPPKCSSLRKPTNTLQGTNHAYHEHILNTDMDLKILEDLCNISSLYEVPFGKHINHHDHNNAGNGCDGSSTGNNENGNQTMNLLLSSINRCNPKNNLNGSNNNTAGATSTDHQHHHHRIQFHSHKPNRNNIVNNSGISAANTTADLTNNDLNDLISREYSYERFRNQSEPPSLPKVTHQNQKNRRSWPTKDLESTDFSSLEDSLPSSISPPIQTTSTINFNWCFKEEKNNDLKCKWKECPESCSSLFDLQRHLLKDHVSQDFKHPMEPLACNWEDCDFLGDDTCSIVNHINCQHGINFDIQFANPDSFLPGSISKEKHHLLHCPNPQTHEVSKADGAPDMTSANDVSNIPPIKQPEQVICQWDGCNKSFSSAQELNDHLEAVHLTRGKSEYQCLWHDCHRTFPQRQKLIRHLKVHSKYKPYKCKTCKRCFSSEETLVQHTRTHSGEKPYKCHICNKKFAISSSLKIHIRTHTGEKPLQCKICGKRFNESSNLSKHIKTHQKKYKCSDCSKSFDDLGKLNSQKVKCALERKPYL
Experimental: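 Universal 'all 10-mer' protein binding microarrays (Agilent AMADID 015681) probed with GST-tagged S. cerevisiae TFs (full-length or DBD) made by in vitro transcription/translation (PURExpress), about 100-200 nM. Bound TF was detected with fluorescent anti-GST. Each ungapped 8-mer (which stands for itself and its reverse complement) is scored by the PBM enrichment score (E-score), a modified Wilcoxon-Mann-Whitney statistic from -0.5 to +0.5, computed with the Universal PBM Analysis Suite. Scale: above 0.35 generally sequence-specific binding.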

| Sequence | PBM E-score |
| --- | --- |
| CGATGCTA | -0.194 |
| CATGACAC | 0.0287 |
| CAAGTCTG | -0.235 |
| CCAACATA | 0.111 |
| CGTGCGCA | 0.0755 |
| CAGGGTGA | 0.313 |
| CCCTAAGC | -0.159 |
| TGGCCGAA | 0.0306 |
| GTTCGGTA | 0.0896 |
| CTCTCATA | -0.0179 |
| CGTCTACA | -0.302 |
| AACGGATG | -0.0695 |
| GTTACATA | 0.195 |
| ACTTTGTG | -0.0505 |
| CGCCACGA | -0.0226 |
| ACCAAATA | 0.232 |
| ACGCGGGA | -0.0381 |
| GCCTGCAC | -0.228 |
| TAATTGTA | 0.144 |
| AGAACCTC | 0.181 |
| CTGGGGAA | -0.0513 |
| ATCATCAC | 0.131 |
| CCGTAGCG | -0.2 |
| ACTTCGCA | 0.0135 |
| ACACCGTA | 0.0263 |

| Sequence | PBM E-score |
| --- | --- |
| CCTCATCC | -0.117 |
| CAGGTAGC | -0.0594 |
| CTACGGGC | -0.284 |
| TCAAGTGA | 0.025 |
| TCTCAGAA | -0.0113 |
| TGGGAAAA | -0.143 |
| CAATGCGC | -0.152 |
| AAGCATTA | -0.0508 |
| AATATTGA | -0.00618 |
| CCCTACCC | 0.153 |
| GACGTGCA | -0.165 |
| AGATGACT | -0.183 |
| AGGCCTCG | -0.0636 |
| AATATTCG | 0.0792 |
| GCAAACGC | -0.15 |
| AAGGACGA | -0.212 |
| GACGTATC | -0.225 |
| CAATCTCG | -0.161 |
| AAAAGAGG | -0.0555 |
| CGACGCCG | -0.154 |
| ATGCTCCA | -0.126 |
| GAATTCGC | -0.213 |
| GCTTTGAC | 0.0804 |
| ACCGACAC | -0.196 |
| ACCGGGCC | 0.0478 |

| Sequence | PBM E-score |
| --- | --- |
| AGGTATAC | 0.19 |
| TAGTAGGA | -0.0963 |
| ACTAACAA | 0.166 |
| TCCAACAA | -0.0932 |
| GACGGGAA | -0.158 |
| GAAGTCCC | -0.218 |
| AGAGTTGA | -0.0238 |
| CATTTCTA | 0.0533 |
| AGATTTCG | 0.0795 |
| ACCGGCCG | 0.229 |
| TGTACCAA | 0.0671 |
| GAACCCAC | 0.226 |
| GTGACCAA | 0.305 |
| ATGATACG | 0.0877 |
| CTCTGGCC | -0.0988 |
| ATTGGCTA | -0.0165 |
| CTTTATCC | 0.0955 |
| GTAACGTA | 0.0108 |
| CAAGCAAC | 0.021 |
| ACCGAAGA | 0.162 |
| CTCGGCAA | -0.2 |
| AATTCTAG | 0.132 |
| AATCAATT | 0.0523 |
| ATACGTCC | -0.118 |
| AGCTAGCG | -0.239 |

| Sequence | PBM E-score |
| --- | --- |
| AGGATACC | 0.28 |
| AGGCACTA | -0.077 |
| AGTTTAGA | 0.119 |
| AAACACGT | -0.112 |
| ACAAGTCG | -0.317 |
| ACAGATCC | -0.0482 |
| AGGTGGAA | 0.049 |
| CCTATAAG | -0.0114 |
| AGTCCTGC | -0.122 |
| CTGAGCAC | -0.0677 |
| CCCCCTGC | -0.372 |
| AACTATCT | -0.149 |
| CTCGTCGA | -0.0885 |
| GCCTCCCC | -0.0546 |
| AACTGAAT | -0.137 |
| GAGGTACA | 0.155 |
| AAGGGGTC | 0.264 |
| GCAGACGC | -0.00899 |
| GTAATCAA | 0.146 |
| CTATTCGC | -0.173 |
| CGACATTC | -0.104 |
| AGAGTACT | -0.144 |
| AGGGTGAG | -0.118 |
| CAACTTGG | 0.0848 |
| GACCTTAA | 0.324 |

| Sequence | PBM E-score |
| --- | --- |
| CTATATCC | -0.088 |
| AGGGTGAC | 0.415 |
| ATATCCTC | 0.047 |
| ATTCATAA | 0.178 |
| CCGCACAG | -0.0714 |
| CGGCAAGC | -0.226 |
| CCCTGGCG | -0.0221 |
| AGGCAATG | -0.154 |
| CTCGTGCC | -0.167 |
| CCATGACA | -0.0401 |
| CTGCTGGA | -0.298 |
| ACCTATTA | 0.195 |
| ATAAACTC | 0.0394 |
| CAGTATCG | -0.13 |
| ACAAGCCA | -0.0246 |
| CCGATAGA | 0.00345 |
| CCTTTAGA | 0.276 |
| CAACAACG | 0.00366 |
| CAGTAAAA | 0.191 |
| ATCGTGAA | -0.0748 |
| ACGGTATC | 0.13 |
| AACGGCCC | -0.0782 |
| CCGTGGTA | 0.0721 |
| CTAATGAC | -0.155 |
| CCAGAAAA | 0.164 |

| Sequence | PBM E-score |
| --- | --- |
| CATCATAA | 0.105 |
| GCAATAGC | -0.122 |
| GGTCGACC | 0.257 |
| CTTCTTCA | -0.13 |
| CGCAATGA | -0.0116 |
| ATCAGTAA | 0.206 |
| CATGCCCG | -0.161 |
| GCAAAATA | 0.0733 |
| TAAGAATA | 0.00471 |
| ATGCGTCG | -0.176 |
| AGAATAAA | 0.208 |
| ACAGAGTG | 0.032 |
| GACGGCTA | -0.137 |
| AGGGACAT | 0.066 |
| AATGATAT | 0.0303 |
| GTGCCTAA | -0.219 |
| AGCGACCG | -0.13 |
| AACGGCGG | -0.0986 |
| CAACAGGG | 0.221 |
| CTTGTTCA | 0.0285 |
| ATAACGAA | -0.0204 |
| ACAGTGGG | -0.0235 |
| AAAGTATA | -0.00639 |
| CCGTACGG | 0.162 |
| ACCTCCGC | 0.0321 |

| Sequence | PBM E-score |
| --- | --- |
| CAGACCAA | 0.0235 |
| CAAGGTTA | 0.466 |
| AATAATTG | 0.0626 |
| CAAGCACA | -0.188 |
| GTCGTGAA | -0.0617 |
| TGCCAGCA | -0.154 |
| GCGGTACC | 0.418 |
| GAATTAGC | -0.127 |
| TGCGCAAA | -0.0405 |
| AACACACA | 0.12 |
| GAGATCAC | -0.00515 |
| AAAGTAAT | 0.205 |
| AGAAGTAC | -0.115 |
| TCACAGCA | 0.124 |
| CGGACACC | -0.0604 |
| GTCCGACA | -0.0779 |
| GGGCGTTA | 0.0169 |
| AGCGGAGC | -0.251 |
| TAGTCTGA | -0.0314 |
| ATGATTTA | 0.095 |
| ACACCGAC | 0.078 |
| CATCGGGA | 0.0534 |
| GGCAAATA | -0.0519 |
| CAGGAGGG | 0.143 |
| GTCCCATA | -0.0204 |

| Sequence | PBM E-score |
| --- | --- |
| CCGCCGCA | -0.00377 |
| CCCGGATA | -0.162 |
| CTCTCATC | -0.0792 |
| CGTCCACA | -0.192 |
| CGGATCAA | -0.0428 |
| CTCCGAGC | -0.162 |
| CATAATTA | 0.169 |
| AAGATGTA | -0.13 |
| ACCCTAAT | 0.407 |
| ACGGGTTC | 0.0245 |
| GGCTCTAC | -0.121 |
| TAAGACAA | 0.0851 |
| CTTCCCAC | -0.103 |
| GCAACCAA | 0.231 |
| GGAACACC | 0.105 |
| AGAACTAA | 0.0739 |
| GACCCTCC | 0.277 |
| TCAACGCA | -0.0106 |
| ATCGACGG | -0.281 |
| GACGGTGA | -0.147 |
| CGTAGAGC | -0.0104 |
| CCATTCGA | -0.0556 |
| CGTTGCCA | -0.125 |
| ATCGATTC | -0.119 |
| GGGCTGAA | -0.0884 |

| Sequence | PBM E-score |
| --- | --- |
| AGAGATAA | -0.065 |
| CACACACG | 0.084 |
| ATCGGCTG | -0.129 |
| AACGCAGA | -0.109 |
| CGTGGACC | -0.0391 |
| AGTTTTTC | 0.183 |
| GTGTCCCA | 0.137 |
| GGAGGCAA | -0.188 |
| CAGCGAAC | -0.0226 |
| AGGTCGAG | -0.0658 |
| GCGCAATA | -0.00572 |
| GGCACATA | 0.00642 |
| AGAAGGGC | -0.092 |
| ATCAGGGG | -0.119 |
| CGGGCACG | -0.151 |
| AACCTTCT | 0.26 |
| GTAATATA | 0.231 |
| ACGTCGCA | -0.0322 |
| ACTGGGCA | -0.283 |
